Experimental data from PubChem BioAssay AID624417 (National Center for Advancing Translational Sciences (NCATS), 2012).
Values joined by “and” are separate entries in the source; they are usually repeats but may differ in a detail not shown here. Equal entries are not always repeated. In all, about 410,000 compounds went through this assay and about 6,400 (1.6%) were called active. Inconclusive means that the source gave no clear call. Such entries were picked first, then a sample of the others. The call rests on the fitted dose curve; in most records, active means well fitted inhibition curve with a large enough effect; inconclusive means small, poorly fitted or top-dose-only effect; inactive means no such curve, though single readings can be large or run the other way. Potencies of inconclusive entries are doubtful fits and often do not repeat.

target: Glucagon-like peptide 1 receptor (Homo sapiens) (UniProt P43220); assay: qHTS of GLP-1 Receptor Inverse Agonists (Inhibition Mode); conditions: HEK293 GLP-1R CRE-luciferase, luminescence, 24 h, GLP-1R form is constitutively active; activity change, negative = inhibition: at 38.3 µM (top of the series) unless noted; further: nearly all actives have a fitted effect of over 55% in size
In short: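 Inverse agonists were sought by their lowering of basal cAMP reporter luciferase output in HEK293 cells stably carrying constitutively active human GLP-1R, after 24 h compound treatment.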
On the % scale 0 is the no-effect control and ±100 the full control effect; potency means the concentration at half of the fitted maximal effect; tags describe the fitted curve by direction and shape.

UniProt P43220, sequence (P43220 whole entry, looked up): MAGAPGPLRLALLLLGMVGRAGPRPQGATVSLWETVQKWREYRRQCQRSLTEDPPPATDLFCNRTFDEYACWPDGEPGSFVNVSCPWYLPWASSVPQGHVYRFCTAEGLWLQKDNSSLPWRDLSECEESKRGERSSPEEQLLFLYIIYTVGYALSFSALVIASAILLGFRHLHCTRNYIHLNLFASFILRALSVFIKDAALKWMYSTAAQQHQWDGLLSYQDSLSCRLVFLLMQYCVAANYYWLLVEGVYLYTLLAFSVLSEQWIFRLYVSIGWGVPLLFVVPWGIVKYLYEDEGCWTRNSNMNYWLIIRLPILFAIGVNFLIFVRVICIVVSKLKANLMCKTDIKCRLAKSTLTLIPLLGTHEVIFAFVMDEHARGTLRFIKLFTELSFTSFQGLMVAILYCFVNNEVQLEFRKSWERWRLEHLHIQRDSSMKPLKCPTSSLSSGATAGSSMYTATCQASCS

Potency, inconclusive:
Fc1ccccc1NC(=S)NCCc1cccc(Cl)c1 28.2 µM [inhibitor, single point]
O=C(NNC(=O)c1ccc2nonc2c1)Nc1ccc(Cl)cc1 28.2 µM [inhibitor, single point]
CN(CC(=O)Nc1cccc(F)c1)C(=O)CCc1nc2sc3c(c2c(=O)[nH]1)CCCC3 10 µM [inhibitor, partial curve, poor fit]
O=C(c1ccc(OC2CCN(Cc3ccc(C(F)(F)F)cc3)CC2)cc1)N1CCCCC1 3.16 µM [inhibitor, partial curve, poor fit]
CC(=O)Nc1cc(C(=O)OC(C(=O)c2ccccc2)c2ccccc2)ccc1C (configuration not stated) 10 µM [inhibitor, single point]
COc1ccccc1N1CCN(C(=S)Nc2ccc3nc(N4CCOCC4)cc(C)c3c2)CC1 5.01 µM [inhibitor, partial curve, poor fit]
COc1ccccc1N1CCN(C(=O)c2oc3cc(C)cc(C)c3c2C)CC1 22.4 µM [inhibitor, single point]
Cc1cc(OCC(=O)N(Cc2ccco2)C2CCS(=O)(=O)C2)ccc1Cl (configuration not stated) 2.82 µM [inhibitor, partial curve, poor fit]
Cc1ccc(-c2nc3ccc(Cl)cn3c2Cc2ccccc2)cc1 3.55 µM [inhibitor, full curve, poor fit]
Cc1cc(C)n(-c2nc3ccccc3nc2N2CCN(C(=O)c3ccccc3)CC2)n1 3.16 µM [inhibitor, partial curve, poor fit]
CCCN(CCC)CCNC(=O)c1cc2c(-c3ccccc3F)nn(C)c2s1 28.2 µM [inhibitor, single point] and 3.55 µM [inhibitor, full curve, poor fit]
Cc1oc(-c2cccc(F)c2)nc1CN(Cc1ccccc1)C[C@@H]1CCC(=O)N1 11.2 µM [inhibitor, single point]
Nc1nc(SCc2ccc(Cl)cc2Cl)nc2nc3c(cc12)CCCC3 10 µM [inhibitor, partial curve]
NC(N)=N/N=C/c1ccc(Cl)c(Cl)c1 28.2 µM [inhibitor, single point]
Cc1cc(O)c(C(c2ccccc2Cl)N2CCN(c3ccccc3)CC2)c(=O)n1Cc1ccco1 (configuration not stated) 22.4 µM [inhibitor, partial curve, poor fit]
C=CCN(Cc1cccs1)C(=O)CN1CCN(S(=O)(=O)c2ccc3c(c2)OCCCO3)CC1 28.2 µM [inhibitor, single point]
Cc1cccc(NC(=O)C2C(c3ccccc3)C2(Cl)Cl)c1C (configuration not stated) 12.6 µM [inhibitor, single point]
COc1cnc(-c2ccccn2)nc1Sc1ccc(C)cc1 10 µM [inhibitor, partial curve, poor fit]
O=C(CN(C1CCCCC1)S(=O)(=O)c1ccccc1)NCc1ccco1 31.6 µM [inhibitor, single point]
CCOc1ccc(C=NNc2ccc(S(=O)(=O)Nc3ccccc3C(=O)O)cc2[N+](=O)[O-])cc1 28.2 µM [inhibitor, single point]
O=C(NCCN1CCOCC1)c1ccc(/C=C2\Sc3ccccc3N(Cc3ccc(F)cc3)C2=O)cc1 28.2 µM [inhibitor, single point]
CCNc1nc(NCC)nc(N/N=C/c2ccc(N(C)C)cc2)n1 22.4 µM [inhibitor, single point]
COc1cc(NC(=O)c2ccc3c(c2)OCCO3)ccc1NC(=O)c1cccs1 11.2 µM [inhibitor, single point]
Cc1ccc(C(=O)OCC(=O)N(C)c2ccccc2)c(C)c1 28.2 µM [inhibitor, single point]
O=C1/C(=C/c2ccc(O)c(O)c2)SC(=S)N1Nc1ccccc1 28.2 µM [inhibitor, single point]
CCN1CCC(N(Cc2cccc(OC)c2)C(=O)Nc2ccc(C)cc2Cl)CC1 11.2 µM [inhibitor, partial curve, poor fit]
CCN(CC)CCNC(=O)c1ccc(NC(=O)c2cccc(S(=O)(=O)N3CCc4ccccc43)c2)cc1 3.98 µM [inhibitor, full curve, poor fit]
CCC(C(=O)Nc1cccc(C#N)c1)n1c(=O)c(-c2ccccc2NC(C)=O)nc2ccccc21 (configuration not stated) 28.2 µM [inhibitor, single point]
Cn1c(=O)c2c(nc(CN3CCCCC3)n2Cc2c(F)cccc2Cl)n(C)c1=O 1.41 µM [inhibitor, full curve, poor fit]
Cc1ccc(C2SCC(=O)N2Cc2ccccc2)cc1 (configuration not stated) 28.2 µM [inhibitor, single point]
CCOCCCNC(=S)N1CCC(C(=O)c2ccc(C)cc2)CC1 15.8 µM [inhibitor, single point]
Cc1ccc(NC(=O)Cn2c(-c3ccc4c(c3)OCO4)cn(-c3ccccc3)c2=O)cc1 28.2 µM [inhibitor, single point]
CCOC(=O)C1=C(C)NC(=S)NC1c1ccc(-c2ccc(Cl)cc2)o1 (configuration not stated) 28.2 µM [inhibitor, single point]
COc1ccc(S(=O)(=O)N2CCCCCC2)cc1Br 28.2 µM [inhibitor, single point]
COc1c(F)c(F)c(C(=O)Nc2ccc(NC(=O)c3ccco3)cc2)c(F)c1F 0.794 µM [inhibitor, full curve, poor fit]
O=C(NCc1ccccc1Cl)c1cccc(C(F)(F)F)c1 11.2 µM [inhibitor, single point]
Cc1ccc(CN2c3ccccc3S(=O)(=O)c3ccccc32)cc1 12.6 µM [inhibitor, partial curve, poor fit]
COC(=O)c1cn(-c2ccccc2)nc1-c1ccccc1 28.2 µM [inhibitor, single point]
C=C(C)CN(CC)c1nc(N)c2c(N)nc3c(c2c1C#N)CC(=O)N3C12CC3CC(CC(C3)C1)C2 3.16 µM [inhibitor, partial curve, poor fit]
COc1ccc(/C=C2\SC(=S)N(CCCC(=O)N3CCN(C)CC3)C2=O)cc1 10 µM [inhibitor, partial curve, poor fit]
CN(Cc1ccccc1)CC(O)COc1ccc(CNCc2cc3ccccc3s2)cc1 (configuration not stated) 2.51 µM [inhibitor, full curve]
O=C(CSc1oc(-c2ccco2)nc1S(=O)(=O)c1ccc(Cl)cc1)c1ccc(Cl)cc1 10 µM [inhibitor, partial curve]
CCOc1ccccc1NC(=O)CC1Nc2ccccc2NC1=O (configuration not stated) 11.2 µM [inhibitor, partial curve, poor fit]
O=C(COc1ccc(Cl)cc1)NCCNc1ccc([N+](=O)[O-])cc1 3.55 µM [inhibitor, partial curve, poor fit]
COc1ccc(OC2C(=O)N(c3ccc(F)cc3)C2c2ccc(OC)c(OC)c2)cc1 (configuration not stated) 28.2 µM [inhibitor, single point]
COc1cc2c(cc1OC)C(c1ccc(Cl)cc1)N(c1ccc(C)c(F)c1)C(=O)C2 (configuration not stated) 28.2 µM [inhibitor, single point]
CC1CCN(CC(O)COC2CCC(C(C)(C)C)CC2)CC1 (configuration not stated) 10 µM [inhibitor, partial curve, poor fit]
Cc1cc(C(=O)N2CCC(Cc3ccccc3)CC2)c(C)o1 31.6 µM [inhibitor, single point]
CCN(CC)c1ccc(CNCc2cccs2)cc1 20 µM [inhibitor, single point]

Potency, active:
COc1cc(CNCCO)cc(Br)c1OCc1ccccc1Cl 6.31 µM
COc1ccc(OC)c(NC(=O)CSc2nnc(C3CCCCC3)n2-c2ccccc2)c1 3.98 µM

Activity change, negative = inhibition, inconclusive:
CC1(C)CCc2cc(CN3CCN(c4ccccn4)CC3)ccc2O1 -84.4% [inhibitor]
CC1CN(C/C(=N\O)C23CC4CC(CC(C4)C2)C3)CC(C)O1 (configuration not stated) -31.3% [inhibitor]

Activity change, negative = inhibition, inactive:
CC(C)(C)n1nc(-c2ccc(F)cc2)c2c(N)ncnc21 70.4%
Cc1cc(/C=N/Nc2ccc([N+](=O)[O-])cn2)c(C)n1-c1ccccc1 0%
COc1cc(N=Nc2ccccc2C(=O)O)ccc1O 31.4%
Cc1ccc(CSc2nc(=O)c3c(n2C)NC(=O)CC3c2ccc(OC(C)C)cc2)cc1 (configuration not stated) 13.5%
COc1cc(OC)cc(-c2cc3ccccc3c(=O)o2)c1 37.5%
Cc1ccc2c(c1)c1c(c(=O)n(Cc3ccccc3)c(=O)n1CC(=O)Nc1ccccc1C)n2C 1.85%
Cc1cccc(C(=O)N/N=C/c2ccncc2)c1 0%
N/C(=N\OC(=O)CCC1CCCC1)c1ccccn1 24.8%
Cc1cc(NC(=O)COC(=O)c2cccc(OCc3ccccc3)c2)no1 -5.36%
